In the supplement of paper PMC12632987:
Whole data set: some 2,300 sequences, median “median log2 fold change of GCK-ALFA target abundance (FLAG IP / Myc IP barcode read proportion)” near 0.095, cut for the lowest 2% near -0.47. Some of the results follow.

B1: LC3A_3_1787 (protein)
chain: MEERIEALLERLREAGHSEETIEAARRVLELLKEKGYEEALETFIEGLEELIDLPDEILLDMLLEALRLLEENDWSEEEVKERIKELMRLARSEGEIIEL
B2: LC3A_free_46_2397 (protein)
chain: YVAKIDVDVLGLTEEQAEEFIKRVKELAEKISKEYNVEIEIEVEVEKNEDGTYYVRIRITIKGENKETVQKATTDLLDGIEEIAEELGASVIFSVEFEEE
B3: LC3A_28_775 (protein)
chain: MDVAANVAAAIAEAKEAKAKGEEAVITITVPAGATQADIDTVIAGLKEIAEITKDMKSISVVIDVDGGVAQEHLDKLMKAAEEIEKKYPNVTVIIALDEE
B4: LC3A_28_817 (protein)
chain: SAAEKTIEKVKEQAEKAKNSKEPVLIEVDVPGTITVEEAKRLMEEIEKLAKELSKKHKVYIVINFTEPVSQEVLDLISKRAEEIEEKYPNVSVIIALPEE
B5: LC3A_28_914 (protein)
chain: SALDESTERALAEIEEAAARGEPAVVTLEVTEEDPARAAAETRRALARLAEAAKKHPGVTIIVDAPANVADEVTAVADEVQAELLKANPSNHIIVALEEP
B6: LC3A_28_1181 (protein)
chain: SELEESIKKALEEAEAAAKAGEATVITIKVPGDVTEEETEKVIKALEEIAELLKDIKGSAIVIEVDSGVSEEHLNKIIEKAEEIEKKYPNVTVIIALDEE
B7: LC3A_45_1943 (protein)
chain: MTIYEAEIDILLKGTEADLEEAKAIIREVAEKHGVEVEIDEELNAALNAETKADGYQFLEVTLRSESEEKVSKAADEIERRLEEKFKGKVASIISFSKVE
B8: LC3A_3_1416 (protein)
chain: MEEAKKKALEALKKAGHSEETLKALNELVDLLEARGAEEEAKEVLELVLENKDISSELLLEVLNEAIELLTVKKLSPEEVIKELKEELRIARNEEEIIEL
B9: LC3A_free_8_2493 (protein)
chain: KSKELAKIASDELDKLEEKLEEKAKELGVSELDILEISLEIGSTIAEIYTLSDKDPKDILDEVKEGLKEVIKLAKEISEELAKFAKEKAKEVIEKVEKKI
B10: LC3A_free_0_2104 (protein)
chain: MTVVGEVLAISDEKLSEEKVKKLTEFLNELADKISKEYGAKTSVEVKEVDGRTIFTLTFSKEGMSVEEMLEIVDEVADKVEKKFKELGVNVTIYTSVYEE
B11: LC3A_147_483 (protein)
chain: MRIDIDALIKGEETVEEFIERLEEKKEELEEEGVEVELEIEVEEVEEGVYYLKVTVTIKAETKEKEKEAADKIIDTIEEFEEENKDKVLGVLISVEEIEE
B12: LC3A_127_205 (protein)
chain: EKKKLLEEAEKLAEKASEALDKIPEEGEKALEEAIKLLEELAKLLKKVPELEDALKDTEQAIKELKATKTLSPAEKEEAIEHISMIIDGVLIEIESELLK
B13: LC3A_3_1627 (protein)
chain: MEEEVEELLEELREAGHDEETLEAFRRVAELLMERGFEEALKVLIEEVRKLLHLPSEILLDFLESVLERLETEDLNEEETIEFIKEEARIARNEGEIIEL
B14: LC3A_3_1758 (protein)
chain: MEEFIEKAAKELKEAGASEELIELASKALRLLLERGLEETAKEFLETLLELVKKSKELAEELAKEVLELLETSELSPEELAKEIRELMSAALSEAEIIEL
B15: LC3A_28_1260 (protein)
chain: SELEKNIEAAIAEVKEAVAKGEEAVVTIKVPAGITEEEVEKVIETMEKIAELGKSLPSVTIIVDVEKGVKQEHIDKLVDKGEELEKKYPNLTVIFALEEE
B16: LC3A_3_1593 (protein)
chain: MEELVERALERLREAGLSPEVLEAARRLLELLAERGYEEAIETLTEELLELKDAPTELLVAMLEELERIVETEDLSEEEIIERIREEARLARLESEIEEL
B17: LC3A_127_216 (protein)
chain: ELEKLLKEAEKVAEELIKNLEKEDYNLEEIEKLNEELLKLAEEAVKLDPRVQPLLEDAEEMKKLIEEMKKANPAEQEELREIMIMLAEGILIEITRLLLE
B18: LC3A_28_1294 (protein)
chain: SPIEEELKKALERAKKAREEGKQEVIVVKVPGDATEEEIEKVIEGLEEIAEVLKDVENQTIIIDVDAGVPQEHIDKLAKKAEEIEKKYPNVTVIIALDED
B19: LC3A_3_1644 (protein)
chain: LEEEVAATEALLRAAGASEETLAAFRETAELLRERGFEEALRTLIEEVRELADLPSELLLDFLEEVLYELKTKDLNEEEVIERIREIATVTRNESEIIEL
B20: LC3A_3_1906 (protein)
chain: MEELIEELLEYLKEKGADEETIENARKLLEKLKELGLEETLKLAIESIKELADKSVELAKEFIEELLKFLEEHKGSVEELEKELKELITVLKNEALIEEL
B21: LC3A_free_26_2163 (protein)
chain: EEFVDIYNIDKAIELVEEAKKLLEKEDPSLKEEIKLLEEAIKELEKETLESLEKALKLLKEAKKLVEKNKSLSEEVKKKLIKLLEEAIKLVEENIEIMKS
B22: LC3A_free_39_2228 (protein)
chain: SKEEVEKLIKELAKEAGLPYEEVKKKIEEIKEIAGLSDEQMLEIIKALLEAVKAGADAREILEEAVKLAKELKAKGKSPEEIAEAILELIEDYRNLVPLD
B23: LC3A_147_458 (protein)
chain: YVVEVDIDLIVDEGKEEVIKRLKELAEELKEEGYKVKLEIKVEELEPGVYYIDAKITVETETKEEAEKAAQKILDRIDEIEEELKDKILGSLISVSIEEK
B24: LC3A_28_861 (protein)
chain: SKTRESIKKAKEELEKAKAKGEEVTIEIVVTEDVTDEEVEEVIEAIEKAAEVSKTVPGVSVIVDIEGKLDPEKLQKILDAGEEAIEKNPKLNVIFALDEE
B25: LC3A_3_1767 (protein)
chain: MEEFVEEVRKRLKELGADEETIEKAARAVRLLLERGLEETAKEVLETLEELLKISKELAEALAEEVLRILETSDDSPEEIAKKVREEIRNFRLEAEIEEL
B26: LC3A_free_46_2301 (protein)
chain: IKVEIDIYFGAAPLEKIEEAAKRLTETAEKKAKELGAEVEIEVKITKNEDGTYTLEIRITAKVKTLEDANKFIQAISDKVDEINKELGIAAIMSIEVIEE
B27: LC3A_128_228 (protein)
chain: SATRKEIKKLLEEALKILEEARSPELDEKLVEEAIKALKEAIKLVEKGAPKEEIKAALDKAIEALEKLLLDAQAKGLPEATDIAEALILVNEAQELVQTL
B28: LC3A_3_1376 (protein)
chain: AEELIEETLAFLREKGASEETLEAVRRAMEALAEKGYEEALKTFAELLREMADLPDELLLDFAEEVLEAVENEDLDEEELIKFIKEEARIARSESEIIEL
B29: LC3A_141_353 (protein)
chain: EKLEKEYVIEAKTPEEAIEKLEKVKEEIKKLMKEKGFKKVEVKVTIETLNKETGETETKVIEDVVTPENIDLVFDSLEIEVASAALKGDVKVTIKATLIK

Target: MAP1LC3A, Q9H492
Assay: median log2 fold change of GCK-ALFA target abundance (FLAG IP / Myc IP barcode read proportion) (log2 ratio); each designed protein is fused to an ALFA-tag nanobody in HEK293 cells to bring the named protein to FLAG-tagged glucokinase (GCK); Myc marks an untargeted standard; higher = target protein stabilised (more abundant)
Settings: target protein: 3xFLAG-MCP-GCK-ALFA reporter; HEK293 landing pad (RPLP)
How it was run: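 Binders fused to an ALFA nanobody were recombined as a library into HEK293 landing-pad cells, which were induced with 2 μg mL^−1 doxycycline and then transfected to express a FLAG-tagged target and a Myc-tagged standard. After 48 h, circular RNA barcodes recovered by anti-FLAG and anti-Myc immunoprecipitation of lysates were reverse transcribed, amplified and sequenced. Each binder's target abundance is the median log2 ratio of FLAG to Myc barcode read proportions, from barcodes present at ≥10^−7 in both replicates, binders carrying ≥3 barcodes per replicate, a 10^−6 pseudocount and pooled replicates.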

| Binder | median log2 fold change |
| --- | --- |
| B1 | -0.221 |
| B2 | -0.0331 |
| B3 | -0.154 |
| B4 | -0.352 |
| B5 | -0.0691 |
| B6 | -0.445 |
| B7 | 0.00857 |
| B8 | 0.297 |
| B9 | 0.0574 |
| B10 | -0.147 |
| B11 | -0.904 |
| B12 | 0.33 |
| B13 | 0.0406 |
| B14 | 0.206 |
| B15 | -0.13 |
| B16 | 0.0518 |
| B17 | 0.13 |
| B18 | 0.373 |
| B19 | 0.107 |
| B20 | 0.0956 |
| B21 | 0.135 |
| B22 | 0.391 |
| B23 | -0.104 |
| B24 | 0.231 |
| B25 | 0.179 |
| B26 | -0.0458 |
| B27 | 0.197 |
| B28 | 0.0128 |
| B29 | 0.171 |
